Experimental data from PMC4917241.
These are yes or no findings as the source states them, for the method shown. Binding seen in cells or lysates may run through a third protein. Some binding calls cover weakened binding; strength is not graded here. For some assays here: Sequences can lack the tags named with a protein.

The chains behind the UniProt entries cited, without tags or fusion partners. Where a name states a change or a piece, a line headed by the entry shows the natural chain unless it says otherwise.
UniProt Q96GD4: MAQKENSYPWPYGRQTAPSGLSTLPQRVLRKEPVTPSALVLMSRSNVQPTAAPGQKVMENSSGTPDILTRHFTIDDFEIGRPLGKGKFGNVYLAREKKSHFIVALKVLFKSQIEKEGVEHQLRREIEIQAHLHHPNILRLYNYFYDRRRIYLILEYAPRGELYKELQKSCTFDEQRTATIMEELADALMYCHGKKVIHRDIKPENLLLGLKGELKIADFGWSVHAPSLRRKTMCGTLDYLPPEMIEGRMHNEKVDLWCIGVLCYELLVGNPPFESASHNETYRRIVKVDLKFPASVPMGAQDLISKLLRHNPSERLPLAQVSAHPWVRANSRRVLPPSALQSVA
UniProt O15392: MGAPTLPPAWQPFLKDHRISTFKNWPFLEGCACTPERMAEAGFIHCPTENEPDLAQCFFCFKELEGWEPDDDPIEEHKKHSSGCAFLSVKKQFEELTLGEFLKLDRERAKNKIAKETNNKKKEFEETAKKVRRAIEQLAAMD
UniProt Q9NQS7: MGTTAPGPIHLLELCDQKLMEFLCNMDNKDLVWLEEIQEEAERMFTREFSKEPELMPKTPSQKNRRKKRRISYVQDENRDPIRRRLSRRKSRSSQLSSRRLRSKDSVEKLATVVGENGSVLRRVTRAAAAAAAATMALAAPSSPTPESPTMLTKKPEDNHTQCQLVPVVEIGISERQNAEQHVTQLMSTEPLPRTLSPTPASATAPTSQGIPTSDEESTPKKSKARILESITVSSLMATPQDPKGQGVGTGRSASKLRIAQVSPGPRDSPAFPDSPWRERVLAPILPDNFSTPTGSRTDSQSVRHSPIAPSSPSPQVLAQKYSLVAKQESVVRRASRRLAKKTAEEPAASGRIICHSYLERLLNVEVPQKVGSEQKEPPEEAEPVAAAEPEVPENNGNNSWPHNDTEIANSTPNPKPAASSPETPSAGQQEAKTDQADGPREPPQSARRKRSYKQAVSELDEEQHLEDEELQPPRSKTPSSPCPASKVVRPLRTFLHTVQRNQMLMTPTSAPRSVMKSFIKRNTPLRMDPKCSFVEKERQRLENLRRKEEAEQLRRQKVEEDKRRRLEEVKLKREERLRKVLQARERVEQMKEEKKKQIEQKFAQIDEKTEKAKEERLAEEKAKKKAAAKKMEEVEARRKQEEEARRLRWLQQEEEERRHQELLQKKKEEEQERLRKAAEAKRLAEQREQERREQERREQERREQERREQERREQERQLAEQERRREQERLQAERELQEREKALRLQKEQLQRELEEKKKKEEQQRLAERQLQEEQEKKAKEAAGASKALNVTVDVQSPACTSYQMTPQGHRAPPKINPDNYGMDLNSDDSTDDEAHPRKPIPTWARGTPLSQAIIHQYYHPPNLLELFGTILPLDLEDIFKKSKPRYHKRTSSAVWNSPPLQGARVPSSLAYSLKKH

Assays:
[1] = biological target: T1, GST-Aurora-C C-terminus (amino acids 41–309) (human) (UniProt Q9UQB9); experiment: pull-down; 35S-methionine labeled in vitro translated protein incubated with GST fusion protein on beads in NET-N buffer (50 mM Tris pH 8.0, 150 mM NaCl, 0.5% NP-40) 1.5 h at 4°C; SDS-PAGE, autoradiography; only the target purified
T1 sequence: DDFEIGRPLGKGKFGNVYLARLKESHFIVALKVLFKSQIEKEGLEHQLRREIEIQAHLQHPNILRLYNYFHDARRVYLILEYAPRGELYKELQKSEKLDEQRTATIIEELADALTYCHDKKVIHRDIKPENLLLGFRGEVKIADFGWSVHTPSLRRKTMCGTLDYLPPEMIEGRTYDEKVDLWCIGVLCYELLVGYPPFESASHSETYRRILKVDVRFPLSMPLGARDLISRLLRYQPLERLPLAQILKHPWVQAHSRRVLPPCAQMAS

[2] = biological target: T2, GST-Aurora-C N-terminus (amino acids 1–40) (human) (UniProt Q9UQB9); experiment: as above
T2 sequence: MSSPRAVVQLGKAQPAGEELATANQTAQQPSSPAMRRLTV

[3] = biological target: T3, GST-Aurora-C full-length (human) (UniProt Q9UQB9); experiment: as above
T3 sequence: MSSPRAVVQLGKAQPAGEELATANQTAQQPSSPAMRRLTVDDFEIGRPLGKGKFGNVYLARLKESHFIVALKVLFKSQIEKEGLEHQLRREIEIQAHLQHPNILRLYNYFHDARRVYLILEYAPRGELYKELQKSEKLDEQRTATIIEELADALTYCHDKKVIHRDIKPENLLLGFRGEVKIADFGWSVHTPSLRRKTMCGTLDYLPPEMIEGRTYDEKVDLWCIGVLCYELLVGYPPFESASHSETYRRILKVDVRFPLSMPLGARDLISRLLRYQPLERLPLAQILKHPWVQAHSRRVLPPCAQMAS

Flag-Aurora-B (human) = Flag-Aurora-B (human) (UniProt Q96GD4); experiment: co-IP; 293T cells co-transfected with HA-INCENP and Flag tagged Aurora kinase (with or without the other GFP tagged kinase and His-Survivin); anti-Flag antibody; immunoblot or kinase assay of the immune complex
Flag-Aurora-C (human) = biological target: T4, Flag-Aurora-C (human) (UniProt Q9UQB9); experiment: as above
T4 sequence: T3 sequence

GST-Aurora-B WT (human) = GST-Aurora-B WT (human) (UniProt Q96GD4); experiment: pull-down; Sf-9 cells co-infected with baculoviruses for GST-Aurora-C or GST-Aurora-B and His-INCENP; isolated on glutathione sepharose; anti-INCENP immunoblot
[4] = biological target: T3, GST-Aurora-C full-length (human); experiment: as above
[5] = biological target: Aurora-B (endogenous) (human (endogenous in PC-3, SK-OV-3, MCF-10A)) (UniProt Q96GD4); experiment: co-IP; endogenous proteins of SK-OV-3 and MCF-10A cells; data not shown
[6] = biological target: T5, Aurora-C (endogenous) (human (endogenous in PC-3, SK-OV-3, MCF-10A)) (UniProt Q9UQB9); experiment: as above
T5 sequence: T3 sequence

[7] = biological target: T6, GFP-Aurora-C (Tet-on HeLa cells) (human) (UniProt Q9UQB9); experiment: co-IP; GFP-Aurora-C from Tet-on HeLa cells immunoprecipitated with anti-GFP antibody; endogenous partners; data not shown
T6 sequence: T3 sequence

[8] = biological target: Aurora-B (endogenous) (human (endogenous in PC-3, SK-OV-3, MCF-10A)) (UniProt Q96GD4); experiment: co-IP; endogenous proteins; nocodazole-treated (500 ng/ml) PC-3 lysate in L buffer with 250 mM NaCl; anti-Aurora-C, anti-Survivin or anti-Aurora-B antibody, normal IgG as control; immunoblot
[9] = biological target: T5, Aurora-C (endogenous) (human (endogenous in PC-3, SK-OV-3, MCF-10A)); experiment: as above
GST-Survivin (human) = GST-Survivin (human) (UniProt O15392); experiment: pull-down; 35S-methionine labeled in vitro translated protein incubated with GST fusion protein on beads in NET-N buffer (50 mM Tris pH 8.0, 150 mM NaCl, 0.5% NP-40) 1.5 h at 4°C; SDS-PAGE, autoradiography; only the target purified
[10] = biological target: Survivin (endogenous) (human (endogenous in PC-3, SK-OV-3, MCF-10A, HeLa)) (UniProt O15392); experiment: co-IP; endogenous proteins of SK-OV-3 and MCF-10A cells; data not shown
[11] = biological target: Survivin (endogenous) (human (endogenous in PC-3, SK-OV-3, MCF-10A, HeLa)) (UniProt O15392); experiment: co-IP; endogenous proteins; nocodazole-treated (500 ng/ml) PC-3 lysate in L buffer with 250 mM NaCl; anti-Aurora-C, anti-Survivin or anti-Aurora-B antibody, normal IgG as control; immunoblot

For “35S-labeled Survivin (in vitro translated) (from UniProt O15392 1-142)”, which binding [1] is on record?
The binding was “binds”.

And the binding [2]?
Its binding is “no binding”.

What about the binding [3] of the same molecule?
Its binding is “binds”.

Which binding (Flag-Aurora-B (human)) does the source give for HA-INCENP (from UniProt Q9NQS7 1-918) here?
The binding was “binds”.

What about the binding (Flag-Aurora-C (human)) of the same molecule?
Its binding is “binds”.

What does the source list for “His-INCENP full-length WT (from UniProt Q9NQS7 1-918)”?
binding (GST-Aurora-B WT (human)): binds; binding [4]: binds

“His-Survivin (from UniProt O15392 1-142)” was tested. Which binding (Flag-Aurora-C (human)) did it give?
The binding was “binds”.

How did the binding (Flag-Aurora-C (human)) turn out when “His-Survivin S20A (from UniProt O15392 1-142)” was run?
The binding was “binds”.

Which binding [5] does the source give for “Inner Centromere Protein (INCENP) (endogenous) (from UniProt Q9NQS7 1-918)” here?
The binding was “binds”.

What about the binding [6] of the same molecule?
Its binding is “binds”.

What about the binding [7] of the same molecule?
Its binding is “binds”.

And the binding [8]?
Its binding is “binds”.

And the binding [9]?
Its binding is “binds”.

With “Survivin (endogenous) (from UniProt O15392 1-142)” as the molecule, how does the binding [5] read?
Its binding is “binds”.

And the binding [6]?
Its binding is “binds”.

And the binding [7]?
The binding was “binds”.

What about the binding [8] of the same molecule?
The binding was “binds”.

What about the binding [9] of the same molecule?
Its binding is “binds”.

B1: 35S-labeled Aurora-C full length (in vitro translated) (enzyme, UniProt Q9UQB9 1-309)
chain: T3 sequence
modifications: 35S-methionine label
With B1 as the molecule, how does the binding (GST-Survivin (human)) read?
The binding was “binds”.

B2: Aurora-C (endogenous) (enzyme, UniProt Q9UQB9 1-309)
chain: T3 sequence
How did the binding [10] turn out when B2 was run?
The binding was “binds”.

And the binding [11]?
The binding was “binds”.

B3: 35S-labeled Aurora-C deletion mutant aa 41–220 (in vitro translated) (domain or fragment, UniProt Q9UQB9 41-220)
chain: DDFEIGRPLGKGKFGNVYLARLKESHFIVALKVLFKSQIEKEGLEHQLRREIEIQAHLQHPNILRLYNYFHDARRVYLILEYAPRGELYKELQKSEKLDEQRTATIIEELADALTYCHDKKVIHRDIKPENLLLGFRGEVKIADFGWSVHTPSLRRKTMCGTLDYLPPEMIEGRTYDEKV
modifications: 35S-methionine label
How did the binding (GST-Survivin (human)) turn out when B3 was run?
Its binding is “no binding”.

B4: 35S-labeled Aurora-C deletion mutant aa 41–190 (in vitro translated) (domain or fragment, UniProt Q9UQB9 41-190)
chain: DDFEIGRPLGKGKFGNVYLARLKESHFIVALKVLFKSQIEKEGLEHQLRREIEIQAHLQHPNILRLYNYFHDARRVYLILEYAPRGELYKELQKSEKLDEQRTATIIEELADALTYCHDKKVIHRDIKPENLLLGFRGEVKIADFGWSVH
modifications: 35S-methionine label
Which binding (GST-Survivin (human)) does the source give for B4 here?
The binding was “no binding”.

B5: 35S-labeled Aurora-C deletion mutant aa 41–160 (in vitro translated) (domain or fragment, UniProt Q9UQB9 41-160)
chain: DDFEIGRPLGKGKFGNVYLARLKESHFIVALKVLFKSQIEKEGLEHQLRREIEIQAHLQHPNILRLYNYFHDARRVYLILEYAPRGELYKELQKSEKLDEQRTATIIEELADALTYCHDK
modifications: 35S-methionine label
B5 was tested. Which binding (GST-Survivin (human)) did it give?
Its binding is “no binding”.

B6: 35S-labeled Aurora-C deletion mutant aa 41–130 (in vitro translated) (domain or fragment, UniProt Q9UQB9 41-130)
chain: DDFEIGRPLGKGKFGNVYLARLKESHFIVALKVLFKSQIEKEGLEHQLRREIEIQAHLQHPNILRLYNYFHDARRVYLILEYAPRGELYK
modifications: 35S-methionine label
With B6 as the molecule, how does the binding (GST-Survivin (human)) read?
Its binding is “no binding”.

B7: 35S-labeled Aurora-C deletion mutant aa 41–291 (in vitro translated) (domain or fragment, UniProt Q9UQB9 41-291)
chain: DDFEIGRPLGKGKFGNVYLARLKESHFIVALKVLFKSQIEKEGLEHQLRREIEIQAHLQHPNILRLYNYFHDARRVYLILEYAPRGELYKELQKSEKLDEQRTATIIEELADALTYCHDKKVIHRDIKPENLLLGFRGEVKIADFGWSVHTPSLRRKTMCGTLDYLPPEMIEGRTYDEKVDLWCIGVLCYELLVGYPPFESASHSETYRRILKVDVRFPLSMPLGARDLISRLLRYQPLERLPLAQILKHP
modifications: 35S-methionine label
With B7 as the molecule, how does the binding (GST-Survivin (human)) read?
Its binding is “no binding”.

B8: 35S-labeled Aurora-C deletion mutant aa 41–280 (in vitro translated) (domain or fragment, UniProt Q9UQB9 41-280)
chain: DDFEIGRPLGKGKFGNVYLARLKESHFIVALKVLFKSQIEKEGLEHQLRREIEIQAHLQHPNILRLYNYFHDARRVYLILEYAPRGELYKELQKSEKLDEQRTATIIEELADALTYCHDKKVIHRDIKPENLLLGFRGEVKIADFGWSVHTPSLRRKTMCGTLDYLPPEMIEGRTYDEKVDLWCIGVLCYELLVGYPPFESASHSETYRRILKVDVRFPLSMPLGARDLISRLLRYQPLE
modifications: 35S-methionine label
For B8, which binding (GST-Survivin (human)) is on record?
The binding was “no binding”.

B9: 35S-labeled Aurora-C deletion mutant aa 41–250 (in vitro translated) (domain or fragment, UniProt Q9UQB9 41-250)
chain: DDFEIGRPLGKGKFGNVYLARLKESHFIVALKVLFKSQIEKEGLEHQLRREIEIQAHLQHPNILRLYNYFHDARRVYLILEYAPRGELYKELQKSEKLDEQRTATIIEELADALTYCHDKKVIHRDIKPENLLLGFRGEVKIADFGWSVHTPSLRRKTMCGTLDYLPPEMIEGRTYDEKVDLWCIGVLCYELLVGYPPFESASHSETYRR
modifications: 35S-methionine label
For B9, which binding (GST-Survivin (human)) is on record?
Its binding is “no binding”.
